The text below walks through data of the supplement of paper PMC11417369.

The other results are listed elsewhere or left out.

The experiment deals with PfAP2-HC AP2 domain (GST-tagged). The experiment in a line: gcPBM binding intensity (ln(normalized median fluorescence intensity)); higher = stronger DNA binding. The essentials: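 In this array assay, P. falciparum DNA-binding domains with a GST tag, expressed in E. coli, were applied for 1 h to primer-extended double-stranded 36-bp intergenic genomic probes and negative controls on an Agilent 4 × 180k array. Bound protein was visualised with Alexa488 anti-GST antibody at 488 nm. Binding intensity is the highest Masliner-normalised natural-log median intensity across replicate spots of either probe orientation.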
With “ACAAATAAAAAAATTACACACATATATAATATATAT [CACACA_site1361]”, the “gcPBM binding intensity (ln)” value turned out to be 9.87.

With “AGTAGTCTGGAGAAAAGTACACAGTATCTGGTAACA [XGTACX_site2034]”, the “gcPBM binding intensity (ln)” value is 9.61.

“TTAATTCTATACATAAATTATGTTTACATAAAGAAT [GTGCAC_negctrl_site246]”: the “gcPBM binding intensity (ln)” value worked out at 9.47.

For the sequence “ATTTGACACGTATATGCACACACCCGTAAGTGTCCA [CACACA_site8891]”, the “gcPBM binding intensity (ln)” value was 9.98.

“TATTAACTCAATAGCGCACACTTTTAATATTTTATA [CACACA_site4973]”: the “gcPBM binding intensity (ln)” value worked out at 9.89.

On to “TATATAACTACAAGAACACACATATAAATATAAATA [CACACA_site7210]”, for which the “gcPBM binding intensity (ln)” value is 9.96.

Take “GTAATTAAGATATATACACACAAAGGCTATTAAATA [CACACA_site6604]”: the “gcPBM binding intensity (ln)” value turned out to be 9.9.

Take “ATATATATATATATATGTACGTAAACAAAAATTTAT [XGTACX_site6780]”: the “gcPBM binding intensity (ln)” value was 9.98.

With “TATTGATAAAAAATATGTACATATATACATATATAT [XGTACX_site3821]”, the “gcPBM binding intensity (ln)” value came out at 9.73.

Regarding “ATGTATCGTAACAAATGTACAAGAGGATGTTTAGAC [XGTACX_site3355]”, the “gcPBM binding intensity (ln)” value is 10.3.

Take “GTATTTATATGATTAACACACATATGTGGATTAATA [CACACA_site1315]”: the “gcPBM binding intensity (ln)” value is 9.68.

In the case of “GATATATTTTGTTATGTAGATGTTGGTAGGAATTTT [GTGCAC_negctrl_site485]”, the “gcPBM binding intensity (ln)” value was found to be 9.72.

On to “TATTATTTATATGATACACACGTACATATACACATA [CACACA_site9275]”, for which the “gcPBM binding intensity (ln)” value is 9.86.

Regarding “CAACAAAAGAAACACACACACACAAACACAAAAAAA [CACACA_site3389]”, the “gcPBM binding intensity (ln)” value was 10.7.

As to “TGTATACCTTAATATACACACATACATATATATATA [CACACA_site8370]”, the “gcPBM binding intensity (ln)” value came out at 9.73.

For “GGATATATTATATGTACACACATATATAACGGATAT [CACACA_site1309]”, the “gcPBM binding intensity (ln)” value was 9.87.

As for “ATGTAATAAATACTACGTACATATATATGTGTTAAT [XGTACX_site3265]”, the “gcPBM binding intensity (ln)” value amounted to 9.87.

For “ATATACATATTTTTGACACACATTAGGAAAATATAT [CACACA_site4123]”, the “gcPBM binding intensity (ln)” value came to 9.71.

With “ATATATAAATATAGCATACACACAAAAAAATAAAAT [CACACA_site2332]”, the “gcPBM binding intensity (ln)” value worked out at 10.3.

As for “AAATATATATATATTACACACTATATATTTATTTAT [CACACA_site681]”, the “gcPBM binding intensity (ln)” value turned out to be 9.84.

For the sequence “TTCATTAAAACGAATACACACATAAATATATAAAAG [CACACA_site4824]”, the “gcPBM binding intensity (ln)” value amounted to 9.82.

As for “ATATACTTATATATTGCACACATCTAATATTTTGAA [CACACA_site3165]”, the “gcPBM binding intensity (ln)” value was 9.86.

“TATAATATGTTTGATGGTACACGTAAACACCTTGCA [XGTACX_site1643]”: the “gcPBM binding intensity (ln)” value came to 9.61.

With “ATAACTAAATTATATTGTACAAAATAATTATATATT [XGTACX_site1188]”, the “gcPBM binding intensity (ln)” value worked out at 9.6.

Regarding “CATATCAAAAAAAAATGTACACGTATATACAATACA [XGTACX_site2660]”, the “gcPBM binding intensity (ln)” value was 9.66.

In the case of “TTTTAAAATAAAAAAATAAAAAAAGGGGAAAAAAAA [CACACA_negctrl_site847]”, the “gcPBM binding intensity (ln)” value stood at 9.55.

With “GTATTTTTTTTCTTTTGTACATATATATAAAGAATA [XGTACX_site4569]”, the “gcPBM binding intensity (ln)” value is 9.35.

On to “TATTATATATATAAATGTACATATTATTTTTCTTTT [XGTACX_site8670]”, for which the “gcPBM binding intensity (ln)” value was 9.67.

On to “AAGAATTTTCGATTTGCACACATTTGTAAAATAAAA [CACACA_site2354]”, for which the “gcPBM binding intensity (ln)” value stood at 9.58.

“TTTAATCAACAAAATCTACACACTAATATGAAATAT [CACACA_site9250]”: the “gcPBM binding intensity (ln)” value is 9.65.

As for “ATACACGTTTTACAATGTACAGAAAGTATACATAAT [XGTACX_site4585]”, the “gcPBM binding intensity (ln)” value is 9.74.

Turning to “TGTTTCTAAGAATTTACACACAAAATATTTCTACAT [CACACA_site7846]”, the “gcPBM binding intensity (ln)” value stood at 9.9.

On to “TAATACTTAATGAACACATGCACATATACATAGTAT [TGCATGCA_site496]”, for which the “gcPBM binding intensity (ln)” value came out at 9.74.

“TTAAAAATTAAAAGTAGTACATATAATATAAACATT [XGTACX_site424]”: the “gcPBM binding intensity (ln)” value came to 9.68.

As for “AAAAAAAAAAATTGCACACAAAAAAAAAAAAAAAAA [CACACA_site2073]”, the “gcPBM binding intensity (ln)” value was 9.32.

On to “AATTATACTCACGTTACACACACACTAGATATATAT [CACACA_site6133]”, for which the “gcPBM binding intensity (ln)” value stood at 10.7.

In the case of “TTTTTTTTTTTTTTTTGTACATATATATAAAAAATA [XGTACX_site2772]”, the “gcPBM binding intensity (ln)” value stood at 8.95.

With “TAATATTACATTTATTGTACTTTGTTTTTATTTTAT [XGTACX_site1605]”, the “gcPBM binding intensity (ln)” value amounted to 10.1.

As to “CCCACAATGGTTTATATACACACTGTTGCAAATTCT [CACACA_site3066]”, the “gcPBM binding intensity (ln)” value is 9.79.

Regarding “ATTGAAAAAATACAATGTACATAGTAATACAAAGAA [XGTACX_site4142]”, the “gcPBM binding intensity (ln)” value worked out at 10.

With “TTATAAAAAAAAAAAAAAAAAAAAACCAATATAATA [CACACA_negctrl_site968]”, the “gcPBM binding intensity (ln)” value came out at 9.43.

On to “TTTATTCTAAAATATTAAAAATGATTTGTTTTTTCA [CACACA_negctrl_site1751]”, for which the “gcPBM binding intensity (ln)” value was 9.25.

On to “GTATTATAAAAAGGAAGTACATATATACATATTATA [XGTACX_site1271]”, for which the “gcPBM binding intensity (ln)” value stood at 9.69.

As to “ATATGAACATTAAAAAAGTAAGGTATTCTCCCCTCT [CACACA_negctrl_site1299]”, the “gcPBM binding intensity (ln)” value stood at 9.71.
